Measurements published in FireProtDB (doi:10.1002/pro.5560050812).

Settings: Homo sapiens; pH 7; 22 °C; GdnHCl; CD; Sodium cacodylate 10 mM; NaCl 50 mM; reversible: yes

U1 small nuclear ribonucleoprotein A wild type (chain not printed)
unfolding free energy: 8.1 kcal/mol
